Some of these results come from one statement about several compounds together. Where a SMILES comes first, the peptide text is derived from it.
Test system: MAb M75
Test: Competition ELISA with M75 (antigen competing for M75)
Type: binding, mouse
Description: ELISA. Purified GST-MN [Zavada et al. (1993), supra] at concentration 10 ng /ml in carbonate buffer pH 9.2 was adsorbed for 3 h in Maxisorb strips (NUNC). After washing and blocking (1 h) with 0.05% Tween 20 in PBS, 50µl/well of the antibody + antigen mixtures were added. […] These mixtures were adsorbed for 1.5 h, followed by washing with Tween-PBS. Bound antibody was detected by antimouse lgG conjugate with peroxidase (SwAM-Px, SEVAC, Prague), diluted 1:1000. In the color reaction OPD (o-phenylenediamine dihydrochloride, Sigma) 1 mg/ml in 0.1 M citrate buffer pH 5.0 was used. To this H2O2 was added to final concentration 0.03%. This system is balanced so as to allow assay for antigen competing for M75 as well as for peptides binding to the epitope of immobilized GST-MN.
Identification of the epitope recognized by Mab M75. Preliminary mapping of M75 epitope employing partial sequences of extracellular parts of MN/CA9 cDNA expressed from bacterial vectors and tested on Western blots located it in PG region. For exact mapping, our strategy was to synthesize partially overlapping oligopeptides of 15-25 aa covering the PG domain and test them in competition ELISA with M75. According to the results, this was followed by a series of 6-12 aa oligopeptides. A major part of the PG domain consists of a 6-fold tandem repeat of 6 aa (aa 61 - 96) [SEQ ID NO: 97]; 4 repeats are identical (GEEDLP) [SEQ ID NO: 98] and 2 contain 2 aa exchanged (SEEDSP [SEQ ID NO: 141] and REEDPP [SEQ ID NO: 142]).

Compound | serological activity in competition ELISA with M75
CC(C)C[C@H](NC(=O)[C@H](C)N)C(=O)N1CCC[C@H]1C(=O)NCC(=O)N[C@@H](CCC(=O)O)C(=O)N[C@@H](CCC(=O)O)C(=O)N[C@@H](CC(=O)O)C(=O)N[C@@H](C)C(N)=O [SEQ ID NO: 135] (H-ALPGEEDA-NH2) | none of the following still shorter oligopeptides (6 + 2aa) competed
CC(C)C[C@H](NC(=O)[C@H](CC(=O)O)NC(=O)[C@H](C)N)C(=O)N1CCC[C@H]1C(=O)NCC(=O)N[C@@H](CCC(=O)O)C(=O)N[C@@H](CCC(=O)O)C(=O)N[C@@H](C)C(N)=O [SEQ ID NO: 134] (H-ADLPGEEA-NH2) | none of the following still shorter oligopeptides (6 + 2aa) competed
EVKPKSEEEGSLKLE [SEQ ID NO: 118] | inactive
CC(C)C[C@H](NC(=O)[C@H](CC(=O)O)NC(=O)[C@H](CCC(=O)O)NC(=O)[C@H](C)N)C(=O)N1CCC[C@H]1C(=O)NCC(=O)N[C@@H](CCC(=O)O)C(=O)N[C@@H](C)C(N)=O [SEQ ID NO: 133] (H-AEDLPGEA-NH2) | none of the following still shorter oligopeptides (6 + 2aa) competed
CC(C)C[C@H](NC(=O)[C@H](CC(=O)O)NC(=O)[C@H](CCC(=O)O)NC(=O)[C@H](CCC(=O)O)NC(=O)CNC(=O)[C@@H]1CCCN1C(=O)[C@H](CC(C)C)NC(=O)[C@H](CC(=O)O)NC(=O)[C@H](CCC(=O)O)NC(=O)[C@@H](N)CCC(=O)O)C(=O)N1CCC[C@H]1C(=O)NCC(N)=O [SEQ ID NO: 120] (H-EEDLPGEEDLPG-NH2) | serologically active
CC(C)C[C@H](NC(=O)[C@H](CC(=O)O)NC(=O)[C@H](CCC(=O)O)NC(=O)[C@H](CCC(=O)O)NC(=O)CNC(=O)[C@@H]1CCCN1C(=O)[C@H](C)N)C(=O)N[C@@H](C)C(N)=O [SEQ ID NO: 136] (H-APGEEDLA-NH2) | none of the following still shorter oligopeptides (6 + 2aa) competed
CC(C)C[C@H](NC(=O)[C@H](CC(=O)O)NC(=O)[C@H](CCC(=O)O)NC(=O)[C@H](CCC(=O)O)NC(=O)CNC(=O)[C@H](C)N)C(=O)N1CCC[C@H]1C(=O)N[C@@H](C)C(N)=O [SEQ ID NO: 131] (H-AGEEDLPA-NH2) | none of the following still shorter oligopeptides (6 + 2aa) competed
CC(C)C[C@H](NC(=O)[C@H](CC(=O)O)NC(=O)[C@H](CCC(=O)O)NC(=O)[C@H](CCC(=O)O)NC(=O)[C@H](C)N)C(=O)N1CCC[C@H]1C(=O)NCC(=O)N[C@@H](C)C(N)=O [SEQ ID NO: 132] (H-AEEDLPGA-NH2) | none of the following still shorter oligopeptides (6 + 2aa) competed
CC(C)C[C@H](NC(=O)[C@H](CC(=O)O)NC(=O)[C@H](CCC(=O)O)NC(=O)[C@H](CCC(=O)O)NC(=O)CNC(=O)[C@@H]1CCCN1C(=O)[C@H](C)N)C(=O)N1CCC[C@H]1C(=O)N[C@@H](C)C(N)=O [SEQ ID NO: 125] (H-APGEEDLPA-NH2) | minimum serologically active sequence
CC(C)C[C@H](NC(=O)[C@H](CC(=O)O)NC(=O)[C@H](CCC(=O)O)NC(=O)[C@H](CCC(=O)O)NC(=O)CNC(=O)[C@@H]1CCCN1C(=O)[C@@H](N)CC(C)C)C(=O)N1CCC[C@H]1C(=O)NCC(=O)N[C@@H](CCC(=O)O)C(=O)N[C@@H](CCC(=O)O)C(=O)N[C@@H](CC(=O)O)C(N)=O [SEQ ID NO: 123, LPGEEDLPGEED] (H-LPGEEDLPGEED-NH2) | serologically active
EDLPGEEDLP [SEQ ID NO: 121] | serologically active
CC(C)C[C@H](NC(=O)[C@H](CC(=O)O)NC(=O)[C@H](CCC(=O)O)NC(=O)[C@H](CCC(=O)O)NC(=O)CNC(=O)[C@@H]1CCCN1C(=O)[C@H](CC(C)C)NC(=O)[C@H](CC(=O)O)NC(=O)[C@H](CCC(=O)O)NC(=O)[C@H](CCC(=O)O)NC(=O)CN)C(=O)N1CCC[C@H]1C(N)=O [SEQ ID NO: 119] (H-GEEDLPGEEDLP-NH2) | serologically active
CC(C)C[C@H](NC(=O)[C@H](CC(=O)O)NC(=O)[C@H](CCC(=O)O)NC(=O)[C@H](CCC(=O)O)NC(=O)CNC(=O)[C@@H]1CCCN1C(=O)[C@H](CC(C)C)NC(=O)[C@H](CC(=O)O)NC(=O)[C@H](CCC(=O)O)NC(=O)[C@H](CCC(=O)O)NC(=O)CNC(=O)[C@@H]1CCCN1)C(N)=O [SEQ ID NO: 124] (H-PGEEDLPGEEDL-NH2) | serologically active
CC(C)C[C@H](NC(=O)[C@H](CC(=O)O)NC(=O)[C@H](CCC(=O)O)NC(=O)[C@H](CCC(=O)O)NC(=O)CNC(=O)[C@@H]1CCCN1C(=O)[C@H](CC(C)C)NC(=O)[C@@H](N)CC(=O)O)C(=O)N1CCC[C@H]1C(=O)NCC(=O)N[C@@H](CCC(=O)O)C(=O)N[C@@H](CCC(=O)O)C(N)=O [SEQ ID NO: 122] (H-DLPGEEDLPGEE-NH2) | serologically active

From EP1123387B1, “MN GENE AND PROTEIN” (INSTITUTE OF VIROLOGY, priority 1998, dated 2000)
